Data on 30 compounds can be found in PubChem BioAssay AID1240 (Sanford-Burnham Center for Chemical Genomics, 2008).

The whole screen tested about 50,000 compounds, of which about 800 (1.6%) showed an effect of 50% or more. Some of the results follow.

The target of this assay is Bcl-2-like protein 10 (Homo sapiens) (UniProt Q9HD36). The assay is described as follows: Phenotype converters, Bcl-B/TR3 peptide binding displacement, primary biochemical FP (AID 1240).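 Further: 0% = Bcl-B with tracer peptide and DMSO and 100% = tracer peptide lacking Bcl-B.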 The settings on record: GST-Bcl-B / FITC-TR3 peptide fluorescence polarization; stronger effect = higher value; compound at 3.75 mg/L. Background: Polarisation of emitted light reports the rotation of a fluorescent probe.
Chain of UniProt Q9HD36 (Q9HD36 whole entry, looked up): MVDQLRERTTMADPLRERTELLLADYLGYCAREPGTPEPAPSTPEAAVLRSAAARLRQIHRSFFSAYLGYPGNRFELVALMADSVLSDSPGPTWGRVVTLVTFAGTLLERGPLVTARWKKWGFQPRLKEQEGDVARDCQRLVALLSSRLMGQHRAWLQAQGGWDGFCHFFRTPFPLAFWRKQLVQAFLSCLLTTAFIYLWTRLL
On to `Cc1nnc(NC(=O)c2cc(C(F)(F)F)cc(C(F)(F)F)c2)s1`, for which the displacement was -8.9%.
As for `CCCCOc1ccc(/C=C2\N=C(c3ccc(Cl)cc3)OC2=O)cc1`, the displacement came to 14.7%.
For `CC(=O)CC(=O)Nc1c(C)cc(C)cc1C` the value was -3.5%.
Take `CCOc1ccccc1NC(=O)c1c(NC(=O)c2ccccc2Br)sc2c1CCC(C)C2` (stereo not given): the displacement is -5.8%.
For `O=C(Nc1ccc(Cl)cc1)C(=O)NC1CCCC1` the value was 10.3%; for `CCC1(c2ccccc2)C(=O)N(C(=O)c2ccccc2)C(=O)N(C(=O)c2cc(OC)c(OC)c(OC)c2)C1=O` (stereo not given), 6.3%; for `CN1CCN(C2=NC(=O)/C(=C/c3ccc(Cl)cc3)S2)CC1`, -21.4%.
With `COC(=O)C1=C(N)OC2=C(C(=O)CCC2)C1c1ccc(OC)cc1` (stereo not given) the figure was -0.3%; with `COC(=O)c1c(NC(=O)C(C)C)sc2c1CCCC2`, -2.6%.
For `C=C(C)COc1ccc2c(CC)cc(=O)oc2c1` the value was -1.3%; for `O=C(Nc1ccccc1Cl)c1ccc(S(=O)(=O)N2CCOCC2)cc1`, 0.9%.
`Cc1ccc(-n2c(C)cc(/C=N/NC(N)=O)c2C)cc1C`: the displacement came out at 0.9%.
For `O=C(CN(c1cccc([N+](=O)[O-])c1)S(=O)(=O)c1ccccc1)Nc1ccccc1Cl` the value was 11.1%; for `COc1ccccc1CNS(=O)(=O)c1ccc(C)cc1`, -11%; for `CC1=C(C(=O)OC(C)C)C(c2ccc(O)c([N+](=O)[O-])c2)C2=C(CC(C)(C)CC2=O)N1` (stereo not given), -6%.
For `CC1(C)CC(=O)C(C2(C3C(=O)CC(C)(C)CC3=O)C(=O)Nc3ccccc32)C(=O)C1` the value was 12.1%; for `COc1cc2c(cc1OC)C(=C(Cl)Cl)NC(C)(C)C2`, -6%; for `O=C1N=c2ccc(Br)cc2=C1c1sc(NS(=O)(=O)Cc2ccccc2)nc1O`, 11.9%.
Turning to `CCOC(=O)c1c(-c2ccc(C)cc2)csc1NC(=O)C1CCCCC1C(=O)O` (stereo not given), the displacement was -5.3%.
Consider `O=C(CSCC(=O)Nc1ccc(F)c([N+](=O)[O-])c1)Nc1ccccc1`, for which the displacement was -12.3%.
`CCCC(=O)Nc1cc(-c2nc3cc(Cl)ccc3o2)ccc1C`: the displacement was -2.5%.
On to `O=C(Nc1ccc(Cl)c(Cl)c1)Nc1ncccc1Cl`, for which the displacement was -4%.
With `O=C(NNc1ccc([N+](=O)[O-])cc1)c1ccc(Cl)cc1Cl`, the displacement is -10.3%.
Regarding `COc1ccc(C(=O)Nc2ccccc2CO)cc1OC`, the displacement was 1%.
With `Cc1cccc(OCC(=O)NCc2ccco2)c1` the figure was -8%.
With `S=C(NCC12CCC3CC(CC(C3)C1)C2)Nc1ccccc1` the figure was -2.6%; with `CC1=C(C(=O)OCCc2ccccc2)C(c2ccccc2)NC(=O)N1` (stereo not given), 3.9%; with `COCCCNC(=O)c1cc(C(=O)OC)cc([N+](=O)[O-])c1`, 15.6%.
With `Cc1cc(Cl)ccc1NC(=O)c1ccc(N(Cc2ccccc2)S(C)(=O)=O)cc1` the figure was 10.6%; with `O=C(Cc1ccc(-c2ccccc2)cc1)Nc1cc(Cl)ccc1Cl`, -5.1%.
